Laboratory results taken from article PMC4336329 (PLoS ONE, 2015).
The campaign covered roughly 310,000 compounds. About 14,000 (4.5%) showed an effect of 50% or more. The effect is printed as a negative number. The list shows a part of the results.

biological target: human ether-à-go-go-related gene (hERG) potassium channel (human, UniProt Q12809); experiment: primary screen, population patch clamp on CHO cells stably expressing hERG
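Further: peak tail current of the secondary pulse compared with the same well before compound.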

Sequence of human ether-à-go-go-related gene (hERG) potassium channel (Q12809 whole entry, looked up): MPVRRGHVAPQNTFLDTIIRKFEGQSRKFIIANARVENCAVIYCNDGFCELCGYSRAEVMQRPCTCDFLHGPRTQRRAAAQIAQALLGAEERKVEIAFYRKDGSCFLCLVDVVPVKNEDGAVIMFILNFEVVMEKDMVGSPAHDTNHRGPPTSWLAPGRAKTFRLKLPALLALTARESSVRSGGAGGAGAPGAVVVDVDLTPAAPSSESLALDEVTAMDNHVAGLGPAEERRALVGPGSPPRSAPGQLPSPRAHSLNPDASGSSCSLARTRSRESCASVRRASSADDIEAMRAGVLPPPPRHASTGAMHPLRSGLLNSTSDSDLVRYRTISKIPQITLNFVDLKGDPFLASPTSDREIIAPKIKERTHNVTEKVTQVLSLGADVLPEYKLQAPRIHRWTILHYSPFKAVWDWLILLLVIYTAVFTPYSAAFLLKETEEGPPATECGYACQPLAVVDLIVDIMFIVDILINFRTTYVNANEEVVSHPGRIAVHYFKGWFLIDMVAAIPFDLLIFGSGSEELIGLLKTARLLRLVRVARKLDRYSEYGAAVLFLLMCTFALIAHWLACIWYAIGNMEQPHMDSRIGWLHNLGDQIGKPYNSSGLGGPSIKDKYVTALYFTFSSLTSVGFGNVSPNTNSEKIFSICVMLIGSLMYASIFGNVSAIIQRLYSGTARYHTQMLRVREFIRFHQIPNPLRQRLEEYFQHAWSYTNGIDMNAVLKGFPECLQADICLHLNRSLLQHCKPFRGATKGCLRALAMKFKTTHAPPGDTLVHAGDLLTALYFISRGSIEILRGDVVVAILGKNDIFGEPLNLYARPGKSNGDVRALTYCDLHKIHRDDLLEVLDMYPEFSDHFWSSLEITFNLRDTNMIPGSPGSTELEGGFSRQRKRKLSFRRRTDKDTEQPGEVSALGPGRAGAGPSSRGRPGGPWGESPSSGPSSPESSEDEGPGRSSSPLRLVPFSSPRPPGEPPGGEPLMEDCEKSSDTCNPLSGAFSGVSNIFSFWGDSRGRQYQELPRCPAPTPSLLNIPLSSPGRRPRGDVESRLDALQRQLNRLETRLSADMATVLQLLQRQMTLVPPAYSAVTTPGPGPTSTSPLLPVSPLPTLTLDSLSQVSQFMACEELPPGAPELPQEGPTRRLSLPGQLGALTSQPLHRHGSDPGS

SMILES	hERG current change (%, negative = inhibition) at 10uM [%]
CN(C)CCCNC(=S)Nc1ccc(-c2ccccc2)cc1	-46
Cc1ccc(S(=O)(=O)Oc2ccc(/C=N/NC(=O)c3c(Cl)cnn3C)cc2)cc1	-8.14
CC1(C)C=C(c2ccc(C=O)s2)CC(C)(C)N1C=O	-5.94
CS(=O)(=O)CCC(C(=O)OCc1ccc(Cl)cc1)N1C(=O)c2ccccc2C1=O (stereo not drawn)	-28
COC(=O)C(C)(C(=O)OC)c1ccc([N+](=O)[O-])cn1	17.8
S=c1[nH]nc(-c2ccccc2)n1/N=C/c1c[nH]c2ccccc12	12.1
O=C(c1ccco1)N1CCN(C(=O)c2cc3cc([N+](=O)[O-])ccc3oc2=O)CC1	-52.4
Cc1ccc(CN(C)C(=O)CN2C(=O)NC3(CCCC3)C2=O)o1	21.7
Cc1nc2ccccc2n1CC(=O)c1ccc(O)c(O)c1.Cl	1.7
NC(=O)NC(c1ccccc1)c1cccc2ccccc12 (stereo not drawn)	-18.3
O=[N+]([O-])c1ccc(O)c(/C=N/Nc2nc3ccccc3[nH]2)c1	-14.4
CCN(CC)CCNC(=O)C(C)c1nn(C)c(=O)c2ccccc12 (stereo not drawn)	8.67
O=C(CN1C(=O)CSC1=O)Nc1ccccc1F	6.3
CCOC(=O)c1ccc2[nH]c3c(c2c1)CN(C)CC3	-41.7
COc1ccccc1NCC(=O)N/N=C/c1sccc1C	14.2
O=C(CC1C(=O)NCCN1Cc1c(F)cccc1Cl)NCCc1ccccn1 (stereo not drawn)	13.2
COc1ccc([C@@H](OC)[C@@]2(Cc3ccc(O)cc3)N=C(N)N(C)C2=O)cc1	1.37
CCCC(c1nnnn1C1CCCCC1)N1CCN(C(=O)c2ccco2)CC1.Cl (stereo not drawn)	-23.7
O=C(/C=C/c1ccccc1[N+](=O)[O-])NCc1ccncc1	-18.8
O=C(CCNC(=O)c1ccc(Cl)cc1)Nc1ccccc1N1CCCC1	-12.4
C/C(=N\NC(=O)C1CC1(C)c1ccccc1)c1ccco1 (stereo not drawn)	-1.43
COc1ccc(-c2cc3ccccc3oc2=O)cc1NC(=O)c1ccc([N+](=O)[O-])o1	5.86

SMILES	hERG current change (%, negative = inhibition) at 10uM [%]
C/C(=N\NC(=O)Cc1ccccc1)c1cccs1	-4.86
O=C(COc1cccc(Cl)c1)N/N=C\c1cc2ccccc2nc1Cl	7.39
Cc1cccc(NCc2cc(Cl)cc(Cl)c2O)n1	-3.97
Cc1cc(C)c2c(Cn3ccnc3)cc(=O)oc2c1	1.13
CC1CCC(NC(=O)Cn2c(=O)[nH]c3ccsc3c2=O)CC1 (stereo not drawn)	10.1
CCn1c(=NC(=O)c2ccc(S(=O)(=O)N(C)C)cc2)sc2cccc(OC)c21	12.8
COc1cc2c(cc1O)[C@@H]1Cc3ccc(OC)c(O)c3CN1CC2	-13.6
O=C(c1cc(-c2ccccc2)n[nH]1)N1CCc2c([nH]c3ccccc23)C1c1ccccn1 (stereo not drawn)	14.5
CCOC(=O)c1nc(C)nc(Sc2n[nH]c(-c3ccc(C(C)(C)C)cc3)n2)c1C	-8.96
O=[N+]([O-])c1ccc(-n2nnnc2CN2CCOCC2)cc1	16.9
CSCCC(NC(=O)COc1cccc2ccccc12)C(=O)O (stereo not drawn)	0.83
O=C(CSc1nnc2scc(-c3ccccc3)n12)N1CCN(Cc2ccccc2)CC1	-41.8
Cc1ccccc1-c1nnn(CC(=O)Nc2ccc3c(c2)OCO3)n1	7.52
Fc1c(F)c(-n2nnc3ccccc32)c(F)c(F)c1Cl	16.6
Oc1ccc(-c2n[nH]c(=S)n2-c2ccc3c(c2)OCCO3)c(O)c1	24.7
CC(=O)Nc1ccc(NC(=O)C(C)OC(=O)c2cccc(S(=O)(=O)N3CCCCCC3)c2)cc1 (stereo not drawn)	4.63
COc1cccc(C(=O)OCCN(C)C(C)(C)C)c1.Cl	-6.81
Cc1ccc(N(C)C(=O)C2CCCN2S(=O)(=O)c2ccc3c(c2)n(C)c(=O)c(=O)n3C)cc1 (stereo not drawn)	-2.28
COc1ccc(C2=NOC(C(=O)N3CCN(C(=O)c4ccco4)CC3)C2)cc1OC (stereo not drawn)	0.127
CC(=O)c1cccc(NC(=O)CN(c2ccc(F)cc2)S(C)(=O)=O)c1	-2.75
Cc1ccc(S(=O)(=O)NP(=O)(Oc2ccccc2)Oc2ccccc2)cc1	-3.7
CCOC(=O)Cn1c(=O)c2c(nc(N3CCCCC3)n2C)n(C)c1=O	-4.44

SMILES	hERG current change (%, negative = inhibition) at 10uM [%]
COc1ccccc1NC(=O)NNC(=O)c1ccc2ccccc2c1O	-5.57
O=C1C2C3CCC(O3)C2C(=O)N1c1cccc(F)c1 (stereo not drawn)	5.53
O=C(NCCC1CCCCN1S(=O)(=O)c1ccc(F)cc1)C(=O)NCc1ccncc1 (stereo not drawn)	-25
O=[N+]([O-])c1ccc(Sc2n[nH]c(-c3ccco3)n2)nc1	-0.59
N#Cc1ccc(-c2csc(NC(=O)c3ccc(N4C(=O)CCC4=O)cc3)n2)cc1	-11
Cc1ccc(C(=O)N/C(=C/C=C/c2ccccc2)C(=O)NCc2ccco2)cc1	-28.9
COc1ccccc1CN=Cc1[nH]c2ccc(Br)c(Cl)c2c1O	13.5
Cn1c(CNC(=O)c2ccc(F)cc2)nc2ccccc21	-4.56
O=C(CCc1nnc(-c2ccc3c(c2)OCO3)o1)N1CCC(c2ccc(F)cc2)C1 (stereo not drawn)	-56
O=C1C2C3C=CC(C3)C2C(=O)N1CCCO (stereo not drawn)	-3.34
O=C(COC(=O)c1cccs1)Nc1cccc(S(=O)(=O)N2CCOCC2)c1	-26.5
COc1cc(C(=O)NCC(=O)OCC(=O)Nc2ncc(Cl)cc2Cl)cc(OC)c1OC	4.85
COc1ccc(CNC(=O)CN2C(=O)COc3ccc(S(=O)(=O)N4CCCCC4)cc32)cc1	-16.2
CNC(=O)C1=C(C)NC(=S)NC1c1cc2c(cc1OC)CCCC2 (stereo not drawn)	-3.1
O=C1CCC(=O)N1CC(=O)N1CCCc2ccccc21	13.8
Cc1nccn1-c1ccc(C=O)cc1	13.4
COC(=O)c1cccc(C(=O)N2CCCC(C(=O)c3cc(F)ccc3F)C2)c1 (stereo not drawn)	-21
CC(=O)OC1CCC(OC(C)=O)c2c1n([O-])c(C)c(C)[n+]2=O (stereo not drawn)	3.92
Cc1cc(C)c(N=Cc2c(O)c3ccccc3oc2=O)c(C)c1	21.3
CS(=O)(=O)N(CC(=O)N1CCN(Cc2ccccc2)CC1)Cc1ccccc1	-8.61
Cn1c(=O)c2c(nc(Br)n2Cc2ccccc2Cl)n(C)c1=O	10.4
CCOC(=O)NC1(C(F)(F)F)C(=O)NC(C)=C1C#N (stereo not drawn)	-4.27

SMILES	hERG current change (%, negative = inhibition) at 10uM [%]
CCCCSc1nc2[nH]ncc2c(=O)[nH]1	8.6
CC(C)(c1ccccc1)c1ccc(OCCn2cnc3ccccc3c2=O)cc1.O=C(O)C(=O)O	11.1
Cc1ccc(N(Cc2cc3cccc(C)c3[nH]c2=O)S(=O)(=O)c2ccccc2)c(C)c1	-2.6
Cc1c(C(=O)O)cccc1[N+](=O)[O-]	21.8
CC1Cc2nc(SCC(=O)NCc3ccccc3)n(Cc3ccccc3)c(=O)c2S1 (stereo not drawn)	-47.2
CCCc1nc2c(s1)CCc1onc(-c3cccc([N+](=O)[O-])c3)c1-2	16.1
O=C(C1CCN(S(=O)(=O)c2cnc[nH]2)CC1)N(CCc1ccccc1)Cc1ccccc1	-1.77
CCSc1nc2ccccc2n1Cc1cccc([N+](=O)[O-])c1	-69.7
O=C(c1ccc(CN2CCOCC2)cc1)N1CCN(c2cccc(Cl)c2)CC1	-22.2
COc1ccc(-c2noc(-c3cccs3)n2)cc1OC	18.6
Cc1cccc(NC(=S)NC(=O)C(c2ccccc2)c2ccccc2)n1	9.16
CNCc1ccccc1Sc1ccc(OC)c(OC)c1.O=C(O)/C=C\C(=O)O	-18.3
CCOc1cc(/C=N\Nc2ccc([N+](=O)[O-])cc2)ccc1OCC(=O)Nc1ccc(C)c(C)c1	12.9
NNC(=O)Cn1c(-c2ccccc2)cc2ccccc21	15.2
COC(=O)c1ccc(Nc2nnc(-c3ccc(C)c(S(=O)(=O)NCC4CCCO4)c3)c3ccccc23)cc1 (stereo not drawn)	-6.16
COC(=O)c1cccc(-n2nnnc2SCC(=O)Nc2cc(C)on2)c1	0.797
CCC(C)(C)NC(=O)C(c1ccc(O)cc1)N(C(=O)Cn1nnc2ccccc21)c1ccc(NC(C)=O)cc1 (stereo not drawn)	7.17
O=C(O)C1C2CCC(C2)C1C(=O)N1CCCC1 (stereo not drawn)	19.6
COc1cccc(OC)c1C(=O)OCC(=O)Nc1cccnc1Cl	4.27
c1ccc(Cc2nn3c(C4COc5ccccc5O4)nnc3s2)cc1 (stereo not drawn)	-8.76
COC(CNC(=O)c1cn(C)c2ccc(S(=O)(=O)N(C)C3CCCCC3)cc2c1=O)OC	-21.5
